{"source": "the RNAGym collection of RNA variant scans (doi:10.7554/elife.90254)", "parents": {"B1": {"name": "LINE1-mini (parent)", "chain": "GGCAGAGCUCAACACAGCGUGGCAAAGUGGCUGUGGCUAGACUGCC"}}, "note": "Read counts are not given, so values of variants with three or more changes are uncertain.", "data": [{"variants_of": "B1", "experiment": "self-cleavage, relative activity (ratio to wild type); higher = more cleavage; in vitro, sequencing; the parent is a self-cleaving ribozyme", "values": [{"variant": "G1C C31A C46G", "self-cleavage": 0.03}, {"variant": "G1C A26C U32C C42G", "self-cleavage": 0}, {"variant": "G1C C23A G30U C37G G40C A41U", "self-cleavage": 0}, {"variant": "G1C C8A C10A A12C G17C A24C G30C U34A", "self-cleavage": 0}, {"variant": "G1C C10U A11U", "self-cleavage": 0.01}, {"variant": "G1C G2U G7U U38A", "self-cleavage": 0.02}, {"variant": "G1C G2C G17C G27C", "self-cleavage": 0.09}, {"variant": "G1C A26U C42U", "self-cleavage": 0}, {"variant": "G1C C8A U20G U28C", "self-cleavage": 0.18}, {"variant": "G1C A24C C45U", "self-cleavage": 0.11}, {"variant": "G1C C3G U38A", "self-cleavage": 0.11}, {"variant": "G1C A16U G33U", "self-cleavage": 0}, {"variant": "G1C C3U C8A", "self-cleavage": 0.25}, {"variant": "G1C C10U G27U", "self-cleavage": 0.04}, {"variant": "G1C C10G C13A G29U", "self-cleavage": 0}, {"variant": "G1C A16U G22A U38A", "self-cleavage": 0.03}, {"variant": "G1C C8A G30U U32G", "self-cleavage": 0.11}, {"variant": "G1C C3U A14C G33C C42U", "self-cleavage": 0}, {"variant": "G1C C23A U28C G33A U34G G36A A39C", "self-cleavage": 0.01}, {"variant": "G1C C8U A12G G27A", "self-cleavage": 0.04}, {"variant": "G1C G2C C18A G19U A26G U32G", "self-cleavage": 0.17}, {"variant": "G1C A24U A26C U34G C45G", "self-cleavage": 0.05}, {"variant": "G1C C3U G19A C37A", "self-cleavage": 0.09}, {"variant": "G1C G2A G21U U28C G35A G36C A39U U43G", "self-cleavage": 0}, {"variant": "G1C A16C U38G C42U", "self-cleavage": 0}, {"variant": "G1C G2C C3G G7C C15A U28C", "self-cleavage": 0}, {"variant": "G1C A16G G19A A26U G36U G40A", "self-cleavage": 0.05}, {"variant": "G1C C13U G27U G44A", "self-cleavage": 0.03}, {"variant": "G1C C18A G19C G27U U28G G40A", "self-cleavage": 0.04}, {"variant": "G1C A16C G19C", "self-cleavage": 0.06}, {"variant": "G1C A14U G30A", "self-cleavage": 0.04}, {"variant": "G1A U32G C37A A39G", "self-cleavage": 0.03}, {"variant": "G1C C3U A12C C18U", "self-cleavage": 0.02}, {"variant": "G1C C3A G27U U38A", "self-cleavage": 0.04}, {"variant": "G1C A4C A6U C13A A26C U43G", "self-cleavage": 0}, {"variant": "G1C G2A U34C A41C", "self-cleavage": 0.01}, {"variant": "G1C G2C U34G", "self-cleavage": 0.03}, {"variant": "G1C A6G G17U G22A A25U U28C U34A", "self-cleavage": 0.03}, {"variant": "G1C C23A G29C C46G", "self-cleavage": 0.06}, {"variant": "G1C A14G U43C", "self-cleavage": 0.03}, {"variant": "G1C G2C U9G", "self-cleavage": 0.04}, {"variant": "G1C C18A G27A G30U A39U", "self-cleavage": 0.05}, {"variant": "G1C C13A U32C C37U", "self-cleavage": 0.01}, {"variant": "G1C C3U A25C", "self-cleavage": 0.06}, {"variant": "G1C A14G A24U A25G", "self-cleavage": 0.02}, {"variant": "G1C A4C C18U", "self-cleavage": 0.09}, {"variant": "G1C C8U G17U G40U", "self-cleavage": 0.05}, {"variant": "G1C A12U C18U G36C G44A", "self-cleavage": 0.02}, {"variant": "G1C C10A G19A", "self-cleavage": 0.01}, {"variant": "G1C A16U U32C A39C", "self-cleavage": 0.01}, {"variant": "G1C A4G G7U U9C G21U A24U C37G", "self-cleavage": 0.03}, {"variant": "G1C C8G G29C C31G A41U U43A C45U", "self-cleavage": 0.01}, {"variant": "G1C C3G G5U C15U U20C A39C", "self-cleavage": 0.1}, {"variant": "G1C C10U U28C C46A", "self-cleavage": 0.1}, {"variant": "G1C A6C A41C", "self-cleavage": 0}, {"variant": "G1C C3A G7C G35U C46A", "self-cleavage": 0.03}, {"variant": "G1C C10A G29U C46U", "self-cleavage": 0.05}, {"variant": "G1C C23U G35U C42U", "self-cleavage": 0.01}, {"variant": "G1C A6U U9A A24G C37A A39C", "self-cleavage": 0.01}, {"variant": "G1C G2C A14G U32G", "self-cleavage": 0.02}, {"variant": "G1C C13A G30U", "self-cleavage": 0}, {"variant": "G1C C3G C18G G29U U34C", "self-cleavage": 0.02}, {"variant": "G1C C13G A16G G44A", "self-cleavage": 0.01}, {"variant": "G1C C10G C13U", "self-cleavage": 0.01}, {"variant": "G1C G2A A24G", "self-cleavage": 0.11}, {"variant": "G1C A4U C10U C42G", "self-cleavage": 0.01}, {"variant": "G1C C13U A39U", "self-cleavage": 0}, {"variant": "G1C G2C U9C G29C", "self-cleavage": 0.02}, {"variant": "G1C A4G A12G C13U G17C C37G", "self-cleavage": 0.01}, {"variant": "G1C A12C G33A G36U", "self-cleavage": 0.01}, {"variant": "G1C C23U A24C G30C U32C U38A C42A", "self-cleavage": 0.01}, {"variant": "G1C A6C C10A", "self-cleavage": 0.02}, {"variant": "G1C C18A G22A", "self-cleavage": 0.08}, {"variant": "G1C A4C A11C C23A A26C C31U", "self-cleavage": 0.01}, {"variant": "G1C A16G C42U U43C", "self-cleavage": 0.03}, {"variant": "G1C C3U A4U G5A C8A U34G G36A G40C", "self-cleavage": 0.21}, {"variant": "G1C A14U C46G", "self-cleavage": 0.03}, {"variant": "G1C C10A G27C C42U", "self-cleavage": 0.02}, {"variant": "G1C C13A A39U", "self-cleavage": 0.06}, {"variant": "G1C C10A G27C G33U", "self-cleavage": 0}, {"variant": "G1C A12U U28G A39U", "self-cleavage": 0.03}, {"variant": "G1C C13A G35U", "self-cleavage": 0.13}, {"variant": "G1C C15U U34A G35U", "self-cleavage": 0.02}]}]}
